Laboratory results reported in article PMC10284917.
These are yes or no findings as the source states them, for the method shown. In cells and extracts the contact can be indirect. Some binding calls cover weakened binding; strength is not graded here. Where a sequence is shown, tags or fusion partners need not be part of it.

By UniProt entry, the sequences of proteins in these tests, tags left out.
UniProt Q27J81: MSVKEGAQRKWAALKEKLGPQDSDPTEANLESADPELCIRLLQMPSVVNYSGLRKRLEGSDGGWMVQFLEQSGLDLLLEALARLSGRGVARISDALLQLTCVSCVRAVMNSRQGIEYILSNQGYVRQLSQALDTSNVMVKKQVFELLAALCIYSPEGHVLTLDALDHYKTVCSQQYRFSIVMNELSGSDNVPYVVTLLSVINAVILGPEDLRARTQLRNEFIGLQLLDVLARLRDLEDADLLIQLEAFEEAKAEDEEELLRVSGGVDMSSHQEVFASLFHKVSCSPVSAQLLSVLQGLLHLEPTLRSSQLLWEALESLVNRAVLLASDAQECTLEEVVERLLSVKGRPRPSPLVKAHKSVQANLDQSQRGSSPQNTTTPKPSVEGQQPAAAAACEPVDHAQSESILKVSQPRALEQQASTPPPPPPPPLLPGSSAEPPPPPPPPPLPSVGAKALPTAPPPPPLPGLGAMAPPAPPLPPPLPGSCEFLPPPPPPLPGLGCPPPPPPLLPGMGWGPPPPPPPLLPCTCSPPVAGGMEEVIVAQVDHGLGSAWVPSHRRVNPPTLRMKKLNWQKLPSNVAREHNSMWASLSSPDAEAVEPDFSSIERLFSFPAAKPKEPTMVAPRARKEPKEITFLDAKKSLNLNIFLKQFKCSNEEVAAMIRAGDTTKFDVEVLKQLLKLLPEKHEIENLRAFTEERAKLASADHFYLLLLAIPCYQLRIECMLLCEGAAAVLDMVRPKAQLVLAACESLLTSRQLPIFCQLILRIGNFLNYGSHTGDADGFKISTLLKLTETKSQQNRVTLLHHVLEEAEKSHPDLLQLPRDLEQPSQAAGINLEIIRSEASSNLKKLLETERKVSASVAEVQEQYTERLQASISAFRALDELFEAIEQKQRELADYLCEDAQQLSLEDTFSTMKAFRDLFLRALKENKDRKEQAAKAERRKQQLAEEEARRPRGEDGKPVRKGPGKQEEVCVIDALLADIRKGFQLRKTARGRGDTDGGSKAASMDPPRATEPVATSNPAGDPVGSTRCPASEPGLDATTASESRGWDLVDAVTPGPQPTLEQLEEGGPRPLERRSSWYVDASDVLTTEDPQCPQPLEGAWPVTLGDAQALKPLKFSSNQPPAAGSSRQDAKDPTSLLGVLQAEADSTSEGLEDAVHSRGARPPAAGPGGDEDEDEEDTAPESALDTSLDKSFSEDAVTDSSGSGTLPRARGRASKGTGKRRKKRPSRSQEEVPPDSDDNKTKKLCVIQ

Molecular target: FLAG-INF2 (INF2-CAXX, ER-localized inverted formin 2) (UniProt Q27J81)
Test: co-IP; anti-FLAG M2 agarose beads, lysates (RIPA (Low) Lysis Buffer) of HEK-293T cells transfected with both constructs, 20 μM MG132 for 8 h before harvesting; 4 h at 4 °C; washed with BC100 buffer (20 mM Tris-Cl pH 7.9, 100 mM NaCl, 0.2 mM EDTA, 20% glycerol) with 0.2% Triton X-100; eluted with FLAG peptide; western blotting

| binding | Binder |
| --- | --- |
| no binding | FBXO11 (protein, UniProt Q86XK2 1-927) MNSVRAANRRPRRVSRPRPVQQQQQQPPQQPPPQPPQQQPPQQQPPPPPQQQQQQQPPPPPPPPPPLPQERNNVGERDDDVPADMVAEESGPGAQNSPYQLRRKTLLPKRTACPTKNSMEGASTSTTENFGHRAKRARVSGKSQDLSAAPAEQYLQEKLPDEVVLKIFSYLLEQDLCRAACVCKRFSELANDPILWKRLYMEVFEYTRPMMHPEPGKFYQINPEEYEHPNPWKESFQQLYKGAHVKPGFAEHFYSNPARYKGRENMLYYDTIEDALGGVQEAHFDGLIFVHSGIYTDEWIYIESPITMIGAAPGKVADKVIIENTRDSTFVFMEGSEDAYVGYMTIRFNPDDKSAQHHNAHHCLEITVNCSPIIDHCIIRSTCTVGSAVCVSGQGACPTIKHCNISDCENVGLYITDHAQGIYEDNEISNNALAGIWVKNHGNPIIRRNHIHHGRDVGVFTFDHGMGYFESCNIHRNRIAGFEVKAYANPTVVRCEIHHGQTGGIYVHEKGRGQFIENKIYANNFAGVWITSNSDPTIRGNSIFNGNQGGVYIFGDGRGLIEGNDIYGNALAGIQIRTNSCPIVRHNKIHDGQHGGIYVHEKGQGVIEENEVYSNTLAGVWVTTGSTPVLRRNRIHSGKQVGVYFYDNGHGVLEDNDIYNHMYSGVQIRTGSNPKIRRNKIWGGQNGGILVYNSGLGCIEDNEIFDNAMAGVWIKTDSNPTLRRNKIHDGRDGGICIFNGGRGLLEENDIFRNAQAGVLISTNSHPILRKNRIFDGFAAGIEITNHATATLEGNQIFNNRFGGLFLASGVNVTMKDNKIMNNQDAIEKAVSRGQCLYKISSYTSYPMHDFYRCHTCNTTDRNAICVNCIKKCHQGHDVEFIRHDRFFCDCGAGTLSNPCTLAGEPTHDTDTLYDSAPPIESNTLQHN |
| binds | Myc-FBXO7-1-381 aa (domain or fragment, UniProt Q9Y3I1 1-381) MRLRVRLLKRTWPLEVPETEPTLGHLRSHLRQSLLCTWGYSSNTRFTITLNYKDPLTGDEETLASYGIVSGDLICLILQDDIPAPNIPSSTDSEHSSLQNNEQPSLATSSNQTSMQDEQPSDSFQGQAAQSGVWNDDSMLGPSQNFEAESIQDNAHMAEGTGFYPSEPMLCSESVEGQVPHSLETLYQSADCSDANDALIVLIHLLMLESGYIPQGTEAKALSMPEKWKLSGVYKLQYMHPLCEGSSATLTCVPLGNLIVVNATLKINNEIRSVKRLQLLPESFICKEKLGENVANIYKDLQKLSRLFKDQLVYPLLAFTRQALNLPDVFGLVVLPLELKLRIFRLLDVRSVLSLSAVCRDLFTASNDPLLWRFLYLRDFR |
| no binding | FBXO31 (protein, UniProt Q5XUX0 1-539) MAVCARLCGVGPSRGCRRRQQRRGPAETAAADSEPDTDPEEERIEASAGVGGGLCAGPSPPPPRCSLLELPPELLVEIFASLPGTDLPSLAQVCTKFRRILHTDTIWRRRCREEYGVCENLRKLEITGVSCRDVYAKLLHRYRHILGLWQPDIGPYGGLLNVVVDGLFIIGWMYLPPHDPHVDDPMRFKPLFRIHLMERKAATVECMYGHKGPHHGHIQIVKKDEFSTKCNQTDHHRMSGGRQEEFRTWLREEWGRTLEDIFHEHMQELILMKFIYTSQYDNCLTYRRIYLPPSRPDDLIKPGLFKGTYGSHGLEIVMLSFHGRRARGTKITGDPNIPAGQQTVEIDLRHRIQLPDLENQRNFNELSRIVLEVRERVRQEQQEGGHEAGEGRGRQGPRESQPSPAQPRAEAPSKGPDGTPGEDGGEPGDAVAAAEQPAQCGQGQPFVLPVGVSSRNEDYPRTCRMCFYGTGLIAGHGFTSPERTPGVFILFDEDRFGFVWLELKSFSLYSRVQATFRNADAPSPQAFDEMLKNIQSLTS |
| binds | Myc-FBXO7-1-169 aa (domain or fragment, UniProt Q9Y3I1 1-169) MRLRVRLLKRTWPLEVPETEPTLGHLRSHLRQSLLCTWGYSSNTRFTITLNYKDPLTGDEETLASYGIVSGDLICLILQDDIPAPNIPSSTDSEHSSLQNNEQPSLATSSNQTSMQDEQPSDSFQGQAAQSGVWNDDSMLGPSQNFEAESIQDNAHMAEGTGFYPSEPM |
| no binding | Myc-FBXO7-ΔUBL (domain or fragment, UniProt Q9Y3I1 75-522) CLILQDDIPAPNIPSSTDSEHSSLQNNEQPSLATSSNQTSMQDEQPSDSFQGQAAQSGVWNDDSMLGPSQNFEAESIQDNAHMAEGTGFYPSEPMLCSESVEGQVPHSLETLYQSADCSDANDALIVLIHLLMLESGYIPQGTEAKALSMPEKWKLSGVYKLQYMHPLCEGSSATLTCVPLGNLIVVNATLKINNEIRSVKRLQLLPESFICKEKLGENVANIYKDLQKLSRLFKDQLVYPLLAFTRQALNLPDVFGLVVLPLELKLRIFRLLDVRSVLSLSAVCRDLFTASNDPLLWRFLYLRDFRDNTVRVQDTDWKELYRKRHIQRKESPKGRFVMLLPSSTHTIPFYPNPLHPRPFPSSRLPPGIIGGEYDQRPTLPYVGDPISSLIPGPGETPSQFPPLRPRFDPVGPLPGPNPILPGRGGPNDRFPFRPSRGRPTDGRLSFM |
| binds | Myc-FBXO7-1-74 aa (domain or fragment, UniProt Q9Y3I1 1-74) MRLRVRLLKRTWPLEVPETEPTLGHLRSHLRQSLLCTWGYSSNTRFTITLNYKDPLTGDEETLASYGIVSGDLI |
